The whole screen tested about 39,000 compounds, of which about 220 (0.56%) showed activity. Some of the results follow.
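Also: static incubation at 37 °C against the wild-type strain, values averaged over two biological replicates.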

The assay has as its system Escherichia coli K-12 BW25113. Briefly: relative growth (OD600 normalised to plate interquartile mean) (fraction); higher = less growth inhibition, active = 0.2 or less. The note with it: 50 µM; LB; incubation time: overnight (16-24 h).
`CCOC(=O)c1cc2c(c(-c3cccc(Br)c3)n1)[C@@H](CCO[Si](C)(C)C(C)(C)C)N(S(=O)(=O)C(C)(C)C)C2`: the relative growth was inactive: 1.05.
In the case of `C[C@@H]1CN([C@@H](C)CO)C(=O)c2cc(NS(=O)(=O)c3cccs3)ccc2O[C@@H](C)CCCCO[C@@H]1CN(C)C(=O)NC1CCCCC1` it was inactive: 0.985; in that of `Cc1ccc(S(=O)(=O)Nc2ccc3c(c2)C(=O)N([C@@H](C)CO)C[C@@H](C)[C@@H](CN(C)Cc2ccc(C(=O)O)cc2)OCCCC[C@H](C)O3)cc1`, inactive: 0.993.
For the compound `C[C@@H]1CN([C@@H](C)CO)C(=O)c2cccc(NC(=O)C3CC3)c2O[C@@H]1CN(C)Cc1ccc(C(=O)O)cc1`, the relative growth was inactive: 0.992.
Take `Cc1noc(C)c1S(=O)(=O)Nc1cccc2c1O[C@H](CN(C)S(=O)(=O)c1ccc(F)cc1)[C@H](C)CN([C@H](C)CO)C2=O`: the relative growth was inactive: 1.01.
In the case of `O=C(C[C@H]1C=C[C@H](NC(=O)c2ccc3c(c2)OCO3)[C@H](CO)O1)NCc1ccc(Oc2ccccc2)cc1` it was inactive: 0.996; in that of `Cc1ccc2[nH]c(C)cc2c1`, inactive: 0.972; in that of `O=C(O)Cn1cnc(C2CC2)cc1=O`, inactive: 0.91.
On to `CCS(=O)(=O)N1CC[C@]2(CC1)CN(Cc1ccc3c(c1)OCO3)[C@@H](CO)c1[nH]c3cc(ccc3c12)OC`, for which the relative growth is inactive: 0.995.
The value for `Cc1nn(C)c(C)c1Nc1nnc(N)[nH]1` was inactive: 1; that for `C[C@@H]1CN([C@@H](C)CO)C(=O)c2cc(NC(=O)Nc3ccc(C(F)(F)F)cc3)ccc2O[C@H]1CN(C)C(=O)Nc1ccc2c(c1)OCO2` was inactive: 0.999; that for `Cc1ccc(S(=O)(=O)Nc2ccc3c(c2)C(=O)N([C@@H](C)CO)C[C@@H](C)[C@@H](CN(C)Cc2ccc4c(c2)OCO4)OCCCC[C@@H](C)O3)cc1` was inactive: 0.99.
The value for `CCN(CC)C(=O)N1CCN(CCC#N)CC1` was inactive: 1.01.
With `CC1(N)CCN(c2cccnc2NC(=O)c2nc(-c3ncccc3C(F)(F)F)cnc2N)CC1`, the relative growth was inactive: 1.02.
The value for `C[C@@H]1CCCCO[C@H](CN(C)S(=O)(=O)c2ccccc2)[C@H](C)CN([C@@H](C)CO)C(=O)c2cc(NC(=O)NC3CCCCC3)ccc2O1` was inactive: 1.01; that for `C[C@H]1CN([C@@H](C)CO)C(=O)c2cc(NC(=O)Cc3cn(C)c4ccccc34)ccc2O[C@H]1CN(C)Cc1ccc(C(=O)Nc2ccccc2N)cc1` was inactive: 0.942.
In the case of `C[C@H]1CN([C@@H](C)CO)C(=O)c2cc(NC(=O)Nc3ccc(F)cc3)ccc2O[C@@H]1CN(C)Cc1ccc(C(F)(F)F)cc1` it was inactive: 0.943; in that of `O=C(C[C@H]1C[C@H]2c3cc(NC(=O)NC4CCCC4)ccc3O[C@H]2[C@H](CO)O1)NCc1ccc(Oc2ccccc2)cc1`, inactive: 1.04; in that of `C[C@@H]1CN([C@H](C)CO)S(=O)(=O)c2ccc(-c3cncnc3)cc2O[C@H]1CN(C)C(=O)c1cccc(F)c1`, inactive: 1.01.
In the case of `Cc1ccc(S(=O)(=O)Nc2ccc3c(c2)C(=O)N([C@@H](C)CO)C[C@@H](C)[C@@H](CN(C)Cc2ccc(Oc4ccccc4)cc2)O3)cc1` it was inactive: 0.994.
Regarding `NC(Cc1cc(I)c(Oc2cc(I)c(O)c(I)c2)c(I)c1)C(=O)[O-].[Na+]` (stereo not drawn), the relative growth is inactive: 0.994.
In the case of `C[C@H]1CN([C@@H](C)CO)C(=O)c2cc(NC(=O)Nc3ccc(C(F)(F)F)cc3)ccc2O[C@@H]1CN(C)C(=O)Nc1ccc(C(F)(F)F)cc1` it was inactive: 1.03; in that of `CCCC#Cc1cnc2c(c1)C(=O)N([C@H](C)CO)C[C@H](C)[C@@H](CN(C)S(=O)(=O)c1cccc(OC)c1)O2`, inactive: 1.02.
In the case of `Cc1nccn1CCc1nc(N)nc(N)n1` it was inactive: 0.966; in that of `CN(Cc1ccc(/C=C/C(=O)Nc2ccc(-c3ccccc3)cc2N)cc1)CC12CC3CC(CC(C3)C1)C2`, inactive: 1.03.
As to `C[C@H]1CN([C@@H](C)CO)C(=O)c2cc(NC(=O)Nc3ccc(C(F)(F)F)cc3)ccc2O[C@@H]1CN(C)CC1CCCCC1`, the relative growth was inactive: 0.937.
In the case of `COc1ccc2c3c(n(c2c1)C)[C@H](CO)N(Cc1cc(cc(c1)OC)OC)C[C@]13CN(C1)C(=O)NC(C)C` it was inactive: 0.999.
In the case of `COc1ccc(CN(C)C[C@H]2OCCCC[C@H](C)Oc3ccc(NS(=O)(=O)c4ccc(C)cc4)cc3C(=O)N([C@H](C)CO)C[C@@H]2C)cc1` it was inactive: 1; in that of `C[C@@H]1CN([C@@H](C)CO)C(=O)Cc2cc(NS(=O)(=O)c3ccc(F)cc3)ccc2O[C@H]1CN(C)Cc1ccc(Oc2ccccc2)cc1`, inactive: 0.96.
In the case of `C[C@@H]1CCCCO[C@H](CN(C)C(=O)Nc2ccccc2)[C@H](C)CN([C@@H](C)CO)C(=O)c2cc(NS(=O)(=O)c3cccs3)ccc2O1` it was inactive: 1.02; in that of `Cc1noc(C)c1NC(=O)Nc1ccc2c(c1)C(=O)N([C@@H](C)CO)C[C@H](C)[C@@H](CN(C)S(=O)(=O)c1ccc(F)cc1)OCCCC[C@@H](C)O2`, inactive: 0.988; in that of `C[C@@H](N)CCP(=O)(O)O`, inactive: 1.03.
Take `CCCN(C)C[C@H]1OCCCC[C@@H](C)Oc2ccc(NS(=O)(=O)c3ccc(Cl)cc3)cc2C(=O)N([C@H](C)CO)C[C@@H]1C`: the relative growth was inactive: 1.
In the case of `C[C@H]1CN([C@@H](C)CO)C(=O)c2cc(NC(=O)Cn3cnnn3)ccc2O[C@H]1CN(C)CC1CCCCC1`, the relative growth is inactive: 1.02.
In the case of `CCCN(C)C[C@H]1OCCCC[C@H](C)Oc2ccc(NS(=O)(=O)c3ccc(Cl)cc3)cc2C(=O)N([C@H](C)CO)C[C@H]1C` it was inactive: 0.968; in that of `CCCCCN(CCCCC)C(=O)C(CCC(=O)[O-])NC(=O)c1ccc(Cl)c(Cl)c1.[Na+]` (stereo not drawn), inactive: 1.06; in that of `C[C@H](CO)N1C[C@H](C)[C@@H](CN(C)Cc2ccc(Cl)c(Cl)c2)Oc2c(NC(=O)Nc3cccc4ccccc34)cccc2C1=O`, inactive: 1.02.
In the case of `C[C@@H]1CCCCO[C@H](CN(C)Cc2ccc(C(=O)O)cc2)[C@@H](C)CN([C@@H](C)CO)C(=O)c2cc(NC(=O)Cc3ccccc3)ccc2O1` it was inactive: 1.04; in that of `Cn1cc(C(=O)NCc2cn3c(n2)CNCC3)cn1`, inactive: 0.979; in that of `COc1ccc2c(c1)/C(=N\O)C(=O)N2`, inactive: 1.02.
In the case of `Cc1noc(C)c1NC(=O)N(C)C[C@@H]1Oc2ccc(NC(=O)NC(C)C)cc2C(=O)N([C@@H](C)CO)C[C@H]1C` it was inactive: 0.981; in that of `C[C@@H]1CCCCO[C@@H](CN(C)C(=O)c2ccccc2)[C@@H](C)CN([C@H](C)CO)C(=O)c2cc(NC(=O)CCCCCC(=O)Nc3ccccc3N)ccc2O1`, inactive: 0.967; in that of `C[C@@H]1CN([C@@H](C)CO)C(=O)c2cc(NC(=O)Nc3cccc4ccccc34)ccc2O[C@@H](C)CCCCO[C@@H]1CN(C)S(=O)(=O)c1cn(C)cn1`, inactive: 1.02.
Consider `COCC#Cc1cnc2c(c1)C(=O)N([C@H](C)CO)C[C@@H](C)[C@H](CN(C)C(=O)c1ccc3c(c1)OCO3)O2`, for which the relative growth was inactive: 1.01.
In the case of `COC(=O)CSc1cc(C)nc(N)n1`, the relative growth is inactive: 0.993.
With `COCC(=O)N(C)C[C@H]1Oc2cc(C#CCN(C)C)ccc2S(=O)(=O)N([C@H](C)CO)C[C@@H]1C`, the relative growth is inactive: 0.994.
The value for `C[C@@H]1CCCCO[C@H](CN(C)C(=O)Nc2ccc3c(c2)OCO3)[C@@H](C)CN([C@H](C)CO)C(=O)c2cc(NS(=O)(=O)c3ccccc3)ccc2O1` was inactive: 1.02; that for `O=C(C[C@H]1CC[C@@H]2[C@H](COC[C@H](O)CN2S(=O)(=O)c2ccc(F)cc2)O1)NCc1ccc(Cl)c(Cl)c1` was inactive: 0.977; that for `C=CCC[C@@H](Cc1ccc(F)cc1)C(=O)OC[C@H]1CCCN1C(=O)[C@@H](CC=C)CC(=O)N(CCO)Cc1ccccc1` was inactive: 1.01.
As for `C[C@H]1CCCCO[C@@H](CN(C)S(=O)(=O)c2cn(C)cn2)[C@@H](C)CN([C@@H](C)CO)C(=O)c2cc(NS(=O)(=O)c3cccs3)ccc2O1`, the relative growth was inactive: 0.999.
In the case of `C[C@@H]1CN([C@@H](C)CO)C(=O)c2cc(NS(=O)(=O)c3cn(C)cn3)ccc2O[C@H]1CN(C)S(=O)(=O)c1ccc(Cl)cc1`, the relative growth was inactive: 0.984.
The value for `C[C@H](CO)N1C[C@H](C)[C@@H](CN(C)Cc2ccc(C(=O)O)cc2)Oc2c(NS(C)(=O)=O)cccc2C1=O` was inactive: 0.998; that for `C[C@@H]1CN([C@H](C)CO)C(=O)Cc2cc(NC(=O)Cc3cn(C)c4ccccc34)ccc2O[C@H]1CN(C)C(=O)Nc1cccc2ccccc12` was inactive: 0.989; that for `C=CCCCCCCCCCCCc1ccco1` was inactive: 0.986.
The value for `NCCN1CCOCC1` was inactive: 0.971; that for `C[C@@H]1CN([C@@H](C)CO)C(=O)c2cc(NC(=O)CCC(F)(F)F)ccc2O[C@@H]1CN(C)C(=O)Nc1cccc2ccccc12` was inactive: 0.964; that for `Cc1noc(C)c1NC(=O)N(C)C[C@@H]1Oc2ccc(NC(=O)NC(C)C)cc2C(=O)N([C@H](C)CO)C[C@@H]1C` was inactive: 0.98.
In the case of `C[C@H]1CN([C@@H](C)CO)C(=O)Cc2cc(NC(=O)Cn3cnnn3)ccc2O[C@@H]1CN(C)S(=O)(=O)c1cn(C)cn1` it was inactive: 1.03; in that of `COC[C@H]1CN(C(=O)C2CC2)Cc2cnn(C)c21`, inactive: 0.974; in that of `CCCNC(=O)N[C@H]1C=C[C@H](CC(=O)N2CCN(C)CC2)O[C@@H]1CO`, inactive: 0.981.
For the compound `O=C(C[C@H]1C[C@@H]2c3cc(NC(=O)c4cccnc4)ccc3O[C@@H]2[C@H](CO)O1)NCc1cc(F)ccc1F`, the relative growth is inactive: 0.97.
In the case of `C=CCN1C[C@@]23C=C[C@@H](O2)[C@@H](C(=O)O)C3C1=O` (stereo partly drawn) it was inactive: 1; in that of `CN(C)CCCCNC(=O)[C@@H]1C[C@@H]2C(=O)N[C@@H](CCCCN)C(=O)N2[C@@H]1c1ccc(O)cc1`, inactive: 1.07.

The record behind these values is the supplement of paper PMC9446081.
